Here are results for 43 molecules from ChEMBL document CHEMBL4888484, “Replenishing the malaria drug discovery pipeline: Screening and hit evaluation of the MMV Hit Generation Library 1 (HGL1) against asexual blood stage Plasmodium falciparum ,using a nano luciferase reporter read-out” (2022).

About 540 (0.36%) of roughly 150,000 compounds showed an effect of 50% or more. The list shows a part of the results.

For the test, the system named is Plasmodium falciparum. The experiment in a line: Primary screen in NF54 nanoGlo assay, in single point, at 2uM, 72h; a lower Z score goes with more inhibition. The class given is functional, Erythrocyte. The following applies: timepoint 72 hour.
As for `C[C@H]1CCCCN1C(=N)NC(=O)c1ccccc1`, the % Inhibition (in general, the relative decrease from the control value, in per cent) was -8% and the Z score turned out to be 1.46.

For `C=C(C)COc1ccccc1C(=O)N1CC[C@]2(OC)CC[C@H](OC)C[C@H]12`, the “% Inhibition” value is -3% and the Z score is given as 0.66.

Take `Cc1nc(-c2csc(S(=O)(=O)N3CCC[C@H](C(=O)N(C)Cc4ccccc4)C3)c2)no1`: the “% Inhibition” value was -10% and the Z score is on record as 1.09.

Consider `COc1ccc(-c2c(C)nn(C)c2NC(=O)CN2CCCN(C)CC2)cc1`, for which the “% Inhibition” value is on record as -14% and the Z score is listed as 2.64.

On to `CC1CN(Cc2ccccc2)CC1NC(=O)NCCn1ccnc1` (stereo unspecified), for which the “% Inhibition” value was -6% and the Z score is 0.65.

For the molecule `Fc1ccc(N2CCN(Cc3cccn3-c3nnc(N4CCN(Cc5ccccc5)CC4)s3)CC2)cc1`, the “% Inhibition” value was determined as 0% and the Z score came to 0.04.

Consider `Cc1nc(CC(=O)Nc2cnn(Cc3nnc4n3CCCC4)c2)cs1`, for which the “% Inhibition” value is -10% and the Z score is on record as 2.05.

For `N#Cc1cncc(S(=O)(=O)N2CCc3cnccc32)c1`, the “% Inhibition” value is given as -8% and the Z score came out at 1.41.

For the molecule `CCN(CCn1cccn1)Cc1ccc2c(c1)CCO2`, the “% Inhibition” value was found to be 2% and the Z score is -0.29.

`CCN(C(=O)c1cc(C#N)c[nH]1)[C@@H](C)Cc1ccc(OC)cc1`: the “% Inhibition” value is on record as -15% and the Z score came to 1.62.

Consider `C[C@H](NC(=O)Cn1cc(-c2nnco2)c2ccccc21)c1ccccc1`, for which the “% Inhibition” value came to 6% and the Z score was -0.66.

In the case of `O=C(c1cnccn1)N1CC[C@H](OCc2ccccc2)C1`, the “% Inhibition” value is -8% and the Z score is 1.44.

As to `CCCn1c(=O)c2ccccc2n(CC(=O)NCc2ccco2)c1=O`, the “% Inhibition” value is 11% and the Z score is reported as -1.6.

Turning to `Cn1cc(COc2ccc(O)cc2)cn1`, the “% Inhibition” value was found to be 3% and the Z score was -0.57.

As to `Cc1cnc(C(C)NC(=O)N[C@@H]2C=C[C@H](CO)C2)s1` (stereo partly specified), the “% Inhibition” value is reported as -11% and the Z score was 1.08.

Consider `O=C1CCCN1CN(C(=O)c1ccc(-c2ccccc2)cc1)c1nccs1`, for which the “% Inhibition” value worked out at 12% and the Z score is reported as -2.05.

Take `COc1ccc(NC(=O)N(C)Cc2c(C)noc2C)cn1`: the “% Inhibition” value was 8% and the Z score is given as -1.37.

Take `Cc1c(CNC(=O)CCC(C)(C)N2CCOCC2)cnn1C`: the “% Inhibition” value is -2% and the Z score is on record as 0.28.

In the case of `CCCOCC(=O)N1CCN(c2nncc3ccccc23)CC1`, the “% Inhibition” value is recorded as -11% and the Z score was determined as 1.15.

With `O=C(CC1CCC2(CC1)OCCO2)N(c1ccccn1)C1CCCC1`, the “% Inhibition” value is on record as -4% and the Z score is reported as 0.44.

Take `C[C@]1(F)CCN(c2ccc(C#N)nc2)C1`: the “% Inhibition” value was -6% and the Z score is 0.64.

With `O=S(=O)(NC[C@@H]1CCCC[C@@H]1N1CCOCC1)c1ccoc1`, the “% Inhibition” value was 9% and the Z score is listed as -1.52.

Turning to `O=C(Nc1ccc(F)cc1)N1CCN(c2ccc(-c3noc(C4CCCCC4)n3)cc2)CC1`, the “% Inhibition” value is listed as -16% and the Z score is on record as 3.22.

Regarding `C[C@H]1CCOCCN1C(=O)Cc1ccc2[nH]ncc2c1`, the “% Inhibition” value was -8% and the Z score is reported as 1.23.

On to `CCc1cc(C(=O)N2CCC3(CCCCC3)C2)[nH]n1`, for which the “% Inhibition” value is recorded as -3% and the Z score worked out at 0.32.

`CC1(C)CN(C(=O)c2cscn2)C[C@]1(O)C1CC1`: the “% Inhibition” value was -1% and the Z score is 0.18.

In the case of `CN1CCCC(CNC(=O)c2cscn2)C1c1cccs1` (stereo unspecified), the “% Inhibition” value is listed as -10% and the Z score came out at 1.16.

With `CCN1CCN(C(=O)c2cc3n(n2)CCN(Cc2ccc(Cl)cc2)C3=O)CC1`, the “% Inhibition” value is on record as -7% and the Z score came to 1.2.

Take `COc1ccc(NC(=O)C2=NN(CC(=O)Nc3ccc(C)cc3)C(=O)CC2)cc1`: the “% Inhibition” value is recorded as -5% and the Z score was determined as 0.8.

With `CCc1nc(CN(C)C(=O)c2ccc(-c3cnc(OC)cc3C)cc2)no1`, the “% Inhibition” value turned out to be 0% and the Z score stood at 0.

Take `CCc1sc(C(C)NC(C)CS(C)(=O)=O)cc1C` (stereo unspecified): the “% Inhibition” value is given as -6% and the Z score is 0.91.

As for `Cc1ccc(F)c(CN(C)C(=O)Cc2cscn2)c1`, the “% Inhibition” value is -9% and the Z score is 1.16.

On to `CN(Cc1ccccc1-c1ccccc1)C(=O)CCn1ccccc1=O`, for which the “% Inhibition” value was 7% and the Z score was -0.94.

Take `O=S1(=O)CCN(c2ccc3cccc(Br)c3n2)CC1`: the “% Inhibition” value is listed as 16% and the Z score is given as -1.88.

Take `Cc1oc(-c2ccc3ccccc3c2)nc1CN(CCO)[C@H]1CCS(=O)(=O)C1`: the “% Inhibition” value is -11% and the Z score worked out at 1.37.

As for `COc1ccc2cc(C(=O)N(C)Cc3nc4ccccc4c(=O)[nH]3)n(C)c2c1`, the “% Inhibition” value is listed as -12% and the Z score worked out at 2.

As to `CCC(NC[C@H](C)O)c1cccc(Cl)c1F` (stereo partly specified), the “% Inhibition” value is reported as 0% and the Z score came to 0.03.

Turning to `CC(C)C(=O)N1CCN(c2ccc3nc[nH]c(=O)c3n2)CC1`, the “% Inhibition” value is recorded as -6% and the Z score is reported as 1.35.

`O=C1CCC[C@@H](C(=O)NCCc2nc(-c3ccc(Cl)cc3)n[nH]2)N1`: the “% Inhibition” value was -16% and the Z score amounted to 1.93.

As to `CN(C)c1cc(N2CCn3nc(CNC(=O)C4CCC4)cc3C2)nc(N)n1`, the “% Inhibition” value was -9% and the Z score came out at 1.02.

`O=C(NCc1ccc(N2CCC(O)CC2)c(F)c1)C1CC2CCCCC2N1` (stereo unspecified): the “% Inhibition” value is listed as 1% and the Z score is listed as -0.12.

For the molecule `Cc1oc(-c2ccc(Cl)cc2)nc1C(=O)NC[C@H](C)c1nc2ccccc2n1C(F)F`, the “% Inhibition” value amounted to 2% and the Z score is -0.26.

For `CCNc1cc(NCCNS(=O)(=O)c2ccc3ccccc3c2)nc(C)n1`, the “% Inhibition” value is on record as 12% and the Z score is listed as -1.56.
